From US20070101461A1, “Method for Improving Phytoremediation Treatment of a Contaminated Medium” (priority 2001, published 2007)

System: Pisum sativum var Early Onward
Settings: non-inoculated plants

## O=C(O)COc1ccc(Cl)cc1Cl [2,4-D, 2,4-dichlorophenoxyacetic acid]
  accumulation of 2,4-D within the stem/leaf tissue, of the total 2,4-D applied: 24-35%
